In all, about 310,000 compounds went through this assay and about 2,200 (0.71%) showed an effect of 50% or more. The effect is printed as a negative number. This is one part of the list.
Biological target: human ether-à-go-go-related gene (hERG) potassium channel (human, UniProt Q12809)
Experiment: primary screen, population patch clamp on CHO cells stably expressing hERG

Sequence of human ether-à-go-go-related gene (hERG) potassium channel (Q12809 whole entry, looked up): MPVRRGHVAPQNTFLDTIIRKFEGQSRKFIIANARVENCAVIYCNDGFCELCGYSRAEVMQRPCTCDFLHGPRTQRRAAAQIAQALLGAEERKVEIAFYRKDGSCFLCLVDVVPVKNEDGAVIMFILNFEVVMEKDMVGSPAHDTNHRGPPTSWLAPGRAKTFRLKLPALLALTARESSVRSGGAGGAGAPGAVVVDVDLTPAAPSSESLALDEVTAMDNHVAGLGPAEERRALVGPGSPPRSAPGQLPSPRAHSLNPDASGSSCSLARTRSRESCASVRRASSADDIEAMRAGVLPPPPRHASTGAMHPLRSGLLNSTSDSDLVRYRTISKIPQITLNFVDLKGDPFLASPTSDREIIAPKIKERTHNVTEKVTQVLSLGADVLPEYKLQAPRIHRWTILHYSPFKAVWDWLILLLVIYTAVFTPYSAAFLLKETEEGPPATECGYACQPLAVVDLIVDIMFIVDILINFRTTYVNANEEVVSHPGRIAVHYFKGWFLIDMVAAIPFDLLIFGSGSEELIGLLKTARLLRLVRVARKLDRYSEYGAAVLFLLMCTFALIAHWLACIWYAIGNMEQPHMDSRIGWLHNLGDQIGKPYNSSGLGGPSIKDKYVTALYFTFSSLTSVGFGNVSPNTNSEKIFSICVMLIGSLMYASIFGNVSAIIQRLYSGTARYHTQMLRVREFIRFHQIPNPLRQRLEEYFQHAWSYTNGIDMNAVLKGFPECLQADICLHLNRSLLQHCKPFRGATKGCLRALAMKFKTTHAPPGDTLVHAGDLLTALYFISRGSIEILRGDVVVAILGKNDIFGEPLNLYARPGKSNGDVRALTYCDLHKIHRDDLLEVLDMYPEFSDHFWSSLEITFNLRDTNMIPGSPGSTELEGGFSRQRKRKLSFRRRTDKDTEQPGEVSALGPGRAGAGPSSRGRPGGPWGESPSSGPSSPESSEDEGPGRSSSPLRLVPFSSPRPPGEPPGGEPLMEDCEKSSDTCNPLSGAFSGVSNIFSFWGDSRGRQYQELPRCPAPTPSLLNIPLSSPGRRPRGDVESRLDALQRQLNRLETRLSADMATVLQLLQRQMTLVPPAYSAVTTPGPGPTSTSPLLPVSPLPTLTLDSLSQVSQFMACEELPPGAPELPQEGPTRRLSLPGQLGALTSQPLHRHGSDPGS

SMILES | hERG current change (%, negative = inhibition) at 1uM
COc1ccc(CN(C)C(=O)CNC(=O)c2ccc(C)cc2)cc1 | 16.7%
COC(=O)c1cc(Cl)c(NC(=O)c2cc3ccccc3o2)cc1OC | 7.73%
C=Cn1nc(C)c2ccccc2c1=O | 15.7%
COCCCNC(=S)Nc1ccccc1C | 16.5%
Cn1c(=O)oc2cc(S(=O)(=O)N3CCCC(C(=O)NCC4COc5ccccc5O4)C3)ccc21 (stereo not shown) | 12.3%
O=C(NC1CCN(C(=S)Nc2ccccc2Cl)CC1)C1CCCCC1 | 12.5%
O=C(NC(Nc1nc2ccccc2s1)(C(F)(F)F)C(F)(F)F)c1ccccc1 | 12.4%
FC(F)Sc1ccc(-n2cc(-c3ccc(Cl)cc3)[n+]3c2CCC3)cc1.[Br-] | -28.8%
CN=c1scc(-c2ccc(Cl)cc2)n1C | -1.23%
Cc1cc(N=Nc2ccc(Cl)cc2)cc(CN2CCOCC2)c1O | 12.7%
COc1ccc(CC(=O)OCC(=O)N2CCCc3ccccc32)cc1OC | 5.98%
CCS(=O)(=O)N1CCC(C(=O)Nc2cccc(C(C)=O)c2)CC1 | -1.8%
Cc1cc(-c2nc3c4c5c(sc4[nH]c(=O)n3n2)CCC5)c(C)o1 | 1.54%
CC1=C(C(N)=O)C(c2cccc(OCc3ccccc3)c2)n2nnnc2N1 (stereo not shown) | 24.7%
N#Cc1ccccc1OCC(=O)C1CC1 | 15.5%
COc1cc(C)ccc1OCc1cc(C(=O)N(C)CCCN2CCOCC2)no1 | -7.67%
COc1ccc(OC)c(CCNC(=O)CSc2ccsc2[N+](=O)[O-])c1 | 14.7%
O=C(CN1CCCCC1)NNc1nc(-c2ccccc2)c2cc(Cl)ccc2n1 | -4.88%
OCCC1CN(Cc2cccc(C(F)(F)F)c2)CCN1Cc1ccccc1 (stereo not shown) | 2.89%
NC(=O)NC(=O)CSc1nc2cc([N+](=O)[O-])ccc2n1-c1cccc(C(F)(F)F)c1 | -4.93%
Cn1cc(S(=O)(=O)CC(=O)Nc2ccc3c(c2)OCCO3)c2ccccc21 | 11.4%
CCOC(=O)C1CCN(C(=O)CN(c2cccc(OC)c2)S(=O)(=O)c2ccccc2)CC1 | -12.3%
O=C(OCn1nnc2ccccc2c1=O)c1cccnc1Cl | 12.9%
CC(=O)Nc1cccc(NS(=O)(=O)c2cccc3nsnc23)c1 | 7.12%
C/C=C/C=N\NC(=O)c1ccncc1 | 15.5%

Reference: publication PMC4336329 (PLoS ONE, 2015)
